Assay results taken from article PMC4336329 (PLoS ONE, 2015).
Out of some 310,000 compounds screened, about 2,200 (0.71%) showed an effect of 50% or more. Effects have a minus sign here. The list shows a part of the results.

Each molecule was assayed against human ether-à-go-go-related gene (hERG) potassium channel (human, UniProt Q12809) (assay: primary screen, population patch clamp on CHO cells stably expressing hERG).
Sequence of human ether-à-go-go-related gene (hERG) potassium channel (Q12809 whole entry, looked up): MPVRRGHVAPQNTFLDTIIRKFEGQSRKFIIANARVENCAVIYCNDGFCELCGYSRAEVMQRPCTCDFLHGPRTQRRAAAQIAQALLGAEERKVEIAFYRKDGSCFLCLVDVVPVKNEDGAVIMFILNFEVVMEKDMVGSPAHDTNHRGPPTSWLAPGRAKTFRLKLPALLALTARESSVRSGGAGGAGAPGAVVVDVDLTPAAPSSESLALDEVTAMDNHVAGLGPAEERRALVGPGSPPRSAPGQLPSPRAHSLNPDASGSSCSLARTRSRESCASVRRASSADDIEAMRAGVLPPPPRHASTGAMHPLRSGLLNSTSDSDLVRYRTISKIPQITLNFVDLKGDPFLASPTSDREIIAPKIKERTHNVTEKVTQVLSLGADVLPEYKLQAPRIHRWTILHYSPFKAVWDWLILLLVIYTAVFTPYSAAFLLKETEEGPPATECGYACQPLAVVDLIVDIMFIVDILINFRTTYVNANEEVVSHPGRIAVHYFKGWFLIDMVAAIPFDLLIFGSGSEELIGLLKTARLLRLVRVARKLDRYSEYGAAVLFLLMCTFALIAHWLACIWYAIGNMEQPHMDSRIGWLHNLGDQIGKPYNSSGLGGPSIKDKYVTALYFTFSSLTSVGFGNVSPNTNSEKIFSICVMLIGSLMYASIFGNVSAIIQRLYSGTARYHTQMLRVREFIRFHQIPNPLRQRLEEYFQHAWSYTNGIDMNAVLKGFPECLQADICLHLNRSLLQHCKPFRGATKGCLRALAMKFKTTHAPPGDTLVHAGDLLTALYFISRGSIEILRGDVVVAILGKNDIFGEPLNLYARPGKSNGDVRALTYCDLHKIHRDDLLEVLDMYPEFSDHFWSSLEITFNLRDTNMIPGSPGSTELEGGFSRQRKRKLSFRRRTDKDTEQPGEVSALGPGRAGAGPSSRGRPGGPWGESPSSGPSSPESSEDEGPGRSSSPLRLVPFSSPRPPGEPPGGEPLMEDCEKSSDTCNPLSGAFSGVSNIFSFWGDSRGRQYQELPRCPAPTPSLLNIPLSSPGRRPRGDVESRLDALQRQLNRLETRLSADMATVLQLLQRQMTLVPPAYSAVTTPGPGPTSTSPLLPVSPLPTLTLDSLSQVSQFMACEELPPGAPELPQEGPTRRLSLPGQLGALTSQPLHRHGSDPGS

| Structure (SMILES) | hERG current change (%, negative = inhibition) at 1uM |
| --- | --- |
| CC(=O)N1c2ccc(S(=O)(=O)NCc3ccccc3Cl)cc2CC1C (stereo not drawn) | 7.3% |
| O=C(CSc1nnc(-c2cccnc2)n1-c1ccccc1)Nc1ccccc1 | -44.9% |
| Cc1cccc(/C=C2/SC(=O)N(Cc3ccccc3)C2=O)n1 | 3.79% |
| O=C(O)CSc1nnc(Cc2ccccc2)n1Cc1ccccc1 | 7.14% |
| O=C(Nc1nnc(SCC(=O)N2CCOCC2)s1)c1ccccc1Cl | 9.94% |
| Cc1cc(NC(=O)CSc2ccc(Cl)cc2)no1 | -3.41% |
| CCN1CCN(CCCNc2ncnc3nc[nH]c23)CC1 | 0.117% |
| COC(=O)Nc1nc(-c2cc(Cl)ccc2Cl)cs1 | 10.5% |
| CCOC(=O)C1CCCN(C(=O)c2ccc3nc(-c4ccc(OC)c(OC)c4)c(-c4ccc(OC)c(OC)c4)nc3c2)C1 (stereo not drawn) | 16.6% |
| ONC(=Nc1ccccc1Cl)c1ccccc1Cl | 14.4% |
| COc1ccc(N(C(C)C(=O)N/N=C/c2cccnc2)S(C)(=O)=O)cc1 (stereo not drawn) | 7.87% |
| NC(=O)c1cc(S(=O)(=O)N2CCN(c3ccc([N+](=O)[O-])cc3)CC2)cs1 | -59.3% |
| O=C(Cn1nnc(-c2ccccc2NC(=O)c2ccccc2F)n1)NCc1ccco1 | 14.6% |
| CC[C@H](C)[C@@H]1NC(=O)c2cc([N+](=O)[O-])cc(F)c2NCCCC[C@@H](C(N)=O)NC(=O)[C@H](CC(N)=O)NC1=O | 7.43% |
| O=C1C2CC=CCC2C(=O)N1Cc1nnc(-c2ccccc2Br)o1 (stereo not drawn) | 6.47% |
| N#CC1=C(N)Oc2n[nH]c(-c3cccnc3)c2C1c1cc(F)ccc1F (stereo not drawn) | 8.92% |
| CC(C)c1ccc(NC2CCCN(C(=O)CCc3cn[nH]c3)C2)cc1 (stereo not drawn) | 19.7% |
| Cc1cc(C)n2c(Nc3ccc4c(c3)OCCO4)c(-c3ccccc3)nc2n1 | 27.8% |
| O=C(COc1ccc(Cl)cc1)N(Cc1ccccc1)c1nc(-c2ccccc2)cs1 | 1.64% |
| COc1cccc(Oc2cc(NN3CCCCC3)c([N+](=O)[O-])cc2[N+](=O)[O-])c1OC | 9.98% |
| COc1cc(NC(=S)NCCCO)c(OC)cc1Cl | 15.2% |
| Cl.O=C(Nc1ccccc1)N1CCNCC1 | 13.9% |

| Structure (SMILES) | hERG current change (%, negative = inhibition) at 1uM |
| --- | --- |
| COc1ccc(CCNCC(=O)Nc2ccc(C(=O)N3CCCCC3)cc2)cc1.O=C(O)C(=O)O | 10.2% |
| Cc1c(Cc2ccccc2)c(=O)oc2c(C)c(OCC(=O)Nc3ccc(C#N)cc3)ccc12 | 0.215% |
| COc1cccc(NC(=S)N2CCN(c3ccccn3)CC2)c1 | 9.77% |
| Cc1nc(-c2ccc(NC(=O)c3cccs3)cc2)cs1 | 4.47% |
| O=C(Cn1ccc2cc(S(=O)(=O)N3CCCCC3)ccc21)NCc1ccccc1F | 11.9% |
| CCn1nc(NS(=O)(=O)c2ccccc2)c2cc3cc(C)ccc3nc21 | 8.55% |
| O=C(COC(=O)c1ccccc1F)Nc1cccnc1Cl | 7.08% |
| O=C(CN1CCCC1)Nc1ccccc1C(=O)c1ccccc1 | 10.5% |
| COc1ccc(C(=O)Nc2ccc(Cl)cc2F)cc1S(=O)(=O)N1CCCC1 | -13.2% |
| CCN(CC)CC(=O)Nc1ccc(-c2nc3cc(NC(=O)CN(CC)CC)ccc3o2)cc1 | -7.15% |
| CCC(C)c1ccc(NC(=O)C2=CC=CN3CCS(=O)(=O)N=C23)cc1 (stereo not drawn) | -0.58% |
| N#Cc1ccccc1Oc1ccccc1C=O | 7.22% |
| CCOC(=O)C1=C(C)N(C)C(=O)C1CC(=O)O (stereo not drawn) | 13.8% |
| Cc1ccc(NC(=O)CSc2nnc(NC(=O)C(C)C)s2)c(C)c1 | 11.7% |
| COC(=O)C1=C(c2cccc(OCc3ccccc3)c2)C[C@@H]2CC[C@H]1N2C(=O)NCCOc1ccccc1Cl | 7.9% |
| Cc1noc(C)c1S(=O)(=O)N(C)Cc1ccccc1 | 22.6% |
| Cc1ccc(/C=N\NC(=O)C2COc3cc4ccccc4cc3O2)o1 (stereo not drawn) | 7.63% |
| NC1=NC(c2cccc(O)c2)n2c(nc3ccccc32)N1 (stereo not drawn) | 12.7% |
| O=C(N/N=C/c1cc([N+](=O)[O-])cc(Br)c1O)C12CC3CCC(CC(C3)C1)C2 | 10.6% |
| COc1ccccc1-c1nc(-c2ccncc2)no1 | 15.1% |
| CO/N=C/c1ccc(OC)c(Oc2nc(OC)cc(OC)n2)c1 | 16.4% |
| O=c1[nH]cnc2c1sc(=S)n2-c1ccccc1 | 1.57% |

| Structure (SMILES) | hERG current change (%, negative = inhibition) at 1uM |
| --- | --- |
| Cc1cc(=O)c(C(=O)Nc2cccc(N3CCCC3=O)c2)nn1-c1ccccc1F | -3.5% |
| CN(C(=S)NCCN1CCOCC1)C(c1ccccc1)c1ccccc1 | 11.2% |
| O=C(Nc1ccccc1)OCCOc1ccc(Br)cc1 | 11.2% |
| O=C1C2C3C=CC(C3)C2C(=O)N1CC1CCCO1 (stereo not drawn) | 16.6% |
| CCC(=O)Nc1nc(C)c(C(=O)N2CCCCC2)s1 | 12.8% |
| O=C(Nc1ccccc1)Nn1cnnc1 | 12.2% |
| O=C(COc1ccc(Cl)cc1Cl)Nc1ccc2nc3n(c(=O)c2c1)CCCC3 | 3.53% |
| Cn1ccnc1SCc1cn2ccccc2n1 | 13.4% |
| COc1cc(C(=O)NCCSc2ccc(F)cc2)cc(OC)c1OC | 8.13% |
| Cc1cc(OCC(=O)N2CCC(O)(c3ccc(Cl)cc3)CC2)c2c(C)cc(=O)oc2c1 | 24.3% |
| CC(C)n1nnnc1-c1cccc(Cl)c1 | 0.0536% |
| Cc1ccc(S(=O)(=O)NCCC(=O)NC2CCCCC2C)cc1 (stereo not drawn) | 10.9% |
| CCCCn1c(=O)c(C(=O)Nc2ccccc2S(N)(=O)=O)c(O)c2ccccc21 | 1.64% |
| COc1ccccc1NC(=O)CN(Cc1ccco1)C(=O)c1cccs1 | 6.65% |
| COc1ccc(C(=O)CN2C(=O)NC3(CCCc4ccccc43)C2=O)cc1OC (stereo not drawn) | 7.65% |
| O=C(CSCc1ccccc1)Nc1cccc(C(=O)Nc2ccc(C(=O)O)cc2)c1 | 6.74% |
| CCN(CCCNC(=O)COc1cc(=O)n(CC)c2ccccc12)c1ccccc1 | 0.51% |
| COc1ccc(C2C(C(=O)c3ccc(C)o3)=C(O)C(=O)N2Cc2cccnc2)cc1OC (stereo not drawn) | 13.6% |
| O=C(O)c1cc(S(=O)(=O)Nc2ccc3c(c2)OCCO3)c(Cl)cc1Cl | 7.54% |
| Cc1ccc(C(=O)NCc2nnc(SCC(=O)NC(C)c3ccccc3)n2C)cc1 (stereo not drawn) | 11.4% |
| CCSc1nc2c(c(=O)[nH]1)C(c1cccnc1)C(C(=O)OC)=C(C)N2 (stereo not drawn) | -0.491% |
| COc1cc(NC(=S)N2CCCC2)cc(OC)c1 | 15% |

| Structure (SMILES) | hERG current change (%, negative = inhibition) at 1uM |
| --- | --- |
| CCCCn1c(CCC(=O)O)nc2cc(S(=O)(=O)N(CC)CC)ccc21 | 15.4% |
| O=C(Nc1ccccc1NS(=O)(=O)c1ccc(F)cc1)C1CCCC1 | 3.67% |
| CCNC(=S)NNc1nc(N2CCCCC2)nc(N2CCOCC2)n1 | 5.66% |
| Cc1cccc(NC(=S)N(CCN2CCOCC2)Cc2cc3cc4c(cc3[nH]c2=O)OCCO4)c1 | 9.81% |
| Cc1cccc(-c2c3c(=O)n(C)c(=O)n(C)c3cn2-c2ccccc2O)c1 | 4.96% |
| Cc1ccc2c(c1)N(CC(=O)NC1CCCC1)C(=O)C(C)O2 (stereo not drawn) | 13.7% |
| O=C(Oc1ccc(C(=S)N2CCOCC2)cc1Br)c1cc(Cl)ccc1Cl | 19.5% |
| CC(C(=O)Nc1ccc2c(c1)OCCO2)N1CCN(C(=O)c2ccco2)CC1 (stereo not drawn) | -1.52% |
| Cc1ccc(C)c(NC2=NS(=O)(=O)c3ccccc32)c1 | 3.55% |
| Cc1cccc(-n2c(SCC(=O)N3CC(=O)Nc4ccccc43)nc3ccccc3c2=O)c1C | 5.43% |
| O=C(CSc1n[nH]c(-c2ccccc2Cl)n1)NCc1cccc(C(=O)O)c1 | 10.2% |
| Cc1cc(Cl)ccc1Oc1cccc(C(=O)/C(C#N)=C/N(C)C)c1 | 6% |
| CCCCNC(=O)CSc1nc2ccc(Nc3nc(N4CCOCC4)nc(N4CCOCC4)n3)cc2s1 | -3.05% |
| N#Cc1c(N)n(Cc2ccccc2)c(=O)c2cc([N+](=O)[O-])ccc12 | 12% |
| Cc1cccc(Cc2nnc(CCC(=O)N(C)Cc3ccncc3C)o2)c1 | 20.3% |
| Cc1ccc(C(=O)N2CC(=O)Nc3ccc(F)cc3C2c2ccc(F)cc2)cc1 (stereo not drawn) | 1.74% |
| COc1ccc(C(=O)NC(C(=O)N2CCN(c3ccccc3O)CC2)C(C)C)cc1 (stereo not drawn) | 7.47% |
| CN(C(=O)c1ccc(Br)o1)C1CCS(=O)(=O)C1 (stereo not drawn) | 16.7% |
| CCOC(=O)CNC(=O)CSc1nnc(CCc2nc3ccccc3[nH]2)n1C | 13.3% |
| CCN(CC)CCCNc1cc(C)nc2cc(-c3cccs3)nn12 | 14.4% |
| CCN1CCN(C(=O)Cn2nc(C)c3sc4ccccc4c3c2=O)CC1 | 7.51% |
